The values below come from the supplement of paper PMC8512760.

What all share (assay): cell viability relative to vehicle (% of vehicle); basal-like triple-negative breast cancer lines; higher = less cytotoxic
Conditions in all cases: 10 µM; 72 h

For test [1], the system named is HCC-1143.
Test [2] concerns HCC-1187.
Test [3] deals with MDA-468.
Test [4] concerns SUM-149.

The structures appear in SMILES notation. The list shows a part of the results. Repeats are few or missing, and single values can be far off.
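Further: stably firefly luciferase-GFP labeled cells in 96-well plates, viability read as luciferase photon flux after d-luciferin addition, treated wells normalized to vehicle wells, single-dose high-throughput screen.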

Regarding `Cl.O=C1CN2Cc3c(ccc(Cl)c3Cl)NC2=N1` [Anagrelide HCl], the cell viability in test [1] amounted to 106; in test [2], 73.5; in test [3] it was 93.5; in test [4] it was 107.

For `COc1c(C)c2c(c(O)c1CC=C(C)CCC(=O)O)C(=O)OC2` [Mycophenolic acid], the cell viability turned out to be 62.9 in test [1], 71.8 in test [2], 68.4 in test [3] and 59.6 in test [4].

Consider `Cl.Nc1ccn(C2OC(CO)C(O)C2O)c(=O)n1` (stereo not drawn) [Cytarabine hydrochloride], for which the cell viability stood at 75.2 in test [1], 64 in test [2], 102 in test [3] and 196 in test [4].

Regarding `COCCOC(=O)C1=C(C)NC(C)=C(C(=O)OC(C)C)C1c1cccc([N+](=O)[O-])c1` (stereo not drawn) [Nimodipine], the cell viability in test [1] was 98.8; in test [2] it was 125; in test [3], 123; in test [4] it was 117.

`O=S(=O)([O-])CCS.[Na+]` [Mesna]: the cell viability in test [1] is 106; in test [2], 83.9; in test [3], 112; in test [4] it was 107.

On to `Nc1ccc(S(=O)(=O)c2ccc(N)cc2)cc1` [Dapsone], for which the cell viability in test [1] was found to be 121; in test [2] it was 107; in test [3] it was 99; in test [4] it was 152.

On to `CC1(C)SC2C(NC(=O)C(C(=O)[O-])c3ccccc3)C(=O)N2C1C(=O)[O-].[Na+].[Na+]` (stereo not drawn) [Carbenicillin, Disodium Salt], for which the cell viability in test [1] amounted to 84.8; in test [2], 105; in test [3], 86.5; in test [4], 76.7.

With `COc1ccc(-n2nc(C(N)=O)c3c2C(=O)N(c2ccc(N4CCCCC4=O)cc2)CC3)cc1` [Apixaban], the cell viability worked out at 99 in test [1], 86.7 in test [2], 87.7 in test [3] and 102 in test [4].

For `c1ccc(-c2ccc(C(c3ccccc3)n3ccnc3)cc2)cc1` (stereo not drawn) [Bifonazole], the cell viability in test [1] is 86.3; in test [2], 99.5; in test [3], 130; in test [4] it was 140.

As for `CCOc1nc2cccc(C(=O)OCc3oc(=O)oc3C)c2n1Cc1ccc(-c2ccccc2-c2nc(=O)o[nH]2)cc1` [Azilsartan Medoxomil], the cell viability in test [1] amounted to 89.9; in test [2] it was 105; in test [3], 103; in test [4], 107.

As for `O=C1CCc2cc(OCCCCc3nnnn3C3CCCCC3)ccc2N1` [Cilostazol], the cell viability in test [1] worked out at 90.9; in test [2] it was 72.6; in test [3], 86; in test [4], 113.

Consider `CC(C)(C)c1nc(-c2cccc(NS(=O)(=O)c3c(F)cccc3F)c2F)c(-c2ccnc(N)n2)s1`, for which the cell viability in test [1] was 97.7; in test [2] it was 115; in test [3], 108; in test [4], 117.

For the compound `CC12C=CC(=O)C=C1CCC1C3CC(O)C(O)(C(=O)CO)C3(C)CC(O)C12F` (stereo not drawn) [Triamcinolone], the cell viability in test [1] is 75.8; in test [2], 87.6; in test [3] it was 155; in test [4] it was 185.

On to `COC(=O)C(Cc1ccccc1)NC(=O)C(N)CC(=O)O` (stereo not drawn) [Aspartame], for which the cell viability in test [1] was 103; in test [2], 108; in test [3], 120; in test [4], 123.

For `Cc1cn(C2CC(O)C(CO)O2)c(=O)[nH]c1=O` (stereo not drawn) [Telbivudine], the cell viability stood at 81.4 in test [1], 111 in test [2], 120 in test [3] and 117 in test [4].

For `CCC1(c2ccccc2)C(=O)NCNC1=O` [Primidone], the cell viability in test [1] is 82.3; in test [2] it was 90.7; in test [3] it was 99.6; in test [4], 95.9.

For `CC(=O)N=c1sc(S(N)(=O)=O)nn1C` [Methazolamide], the cell viability in test [1] worked out at 127; in test [2], 93.7; in test [3], 97.1; in test [4], 102.

Consider `Cc1cccc(C)c1OCC(=O)NC(Cc1ccccc1)C(O)CC(Cc1ccccc1)NC(=O)C(C(C)C)N1CCCNC1=O` (stereo not drawn) [Lopinavir], for which the cell viability is 79.4 in test [1], 108 in test [2], 93.5 in test [3] and 97.4 in test [4].

For `COc1ccc(C2(C#N)CCC(C(=O)O)CC2)cc1OC1CCCC1` (stereo not drawn) [Cilomilast], the cell viability amounted to 72.3 in test [1], 99.7 in test [2], 114 in test [3] and 119 in test [4].

As to `CCOC(=O)c1ncn2c1CN(C)C(=O)c1cc(F)ccc1-2` [Flumazenil], the cell viability in test [1] was determined as 98.3; in test [2], 98.7; in test [3], 91.4; in test [4], 111.

As to `NC(N)=NS(=O)(=O)c1ccc(N)cc1` [Sulfaguanidine], the cell viability came to 68.3 in test [1], 87.8 in test [2], 93.5 in test [3] and 98.5 in test [4].

In the case of `CCCNC(C)C(=O)Nc1c(C)csc1C(=O)OC.Cl` (stereo not drawn) [Articaine HCl], the cell viability is 70.3 in test [1], 85.4 in test [2], 109 in test [3] and 107 in test [4].

On to `CC(C)(C#N)c1cc(Cn2cncn2)cc(C(C)(C)C#N)c1` [Anastrozole], for which the cell viability amounted to 114 in test [1], 113 in test [2], 122 in test [3] and 170 in test [4].

Turning to `COC(=O)Nc1nc2ccc(S(=O)c3ccccc3)cc2[nH]1` (stereo not drawn) [Oxfendazole], the cell viability is 87.2 in test [1], 72.7 in test [2], 89.9 in test [3] and 107 in test [4].

As to `CO[C@H]1/C=C/O[C@@]2(C)Oc3c(C)c(O)c4c(c3C2=O)C(=O)/C(=C/NN2CCN(C)CC2)C(=C4O)NC(=O)/C(C)=C/C=C/[C@H](C)[C@H](O)[C@@H](C)[C@@H](O)[C@@H](C)[C@H](OC(C)=O)[C@@H]1C` [Rifampin], the cell viability in test [1] worked out at 73.6; in test [2] it was 75.2; in test [3], 88.6; in test [4] it was 85.5.

On to `CC(=O)OC1(C(C)=O)CCC2C3CC(C)C4=CC(=O)CCC4(C)C3CCC21C` (stereo not drawn) [Medroxyprogesterone acetate], for which the cell viability in test [1] was determined as 79.7; in test [2], 114; in test [3], 110; in test [4], 122.

`Cl.Cl.Fc1ccc(C(c2ccc(F)cc2)N2CCN(CC=Cc3ccccc3)CC2)cc1` [Flunarizine 2HCl]: the cell viability in test [1] came out at 89.1; in test [2], 88.5; in test [3], 102; in test [4] it was 107.
